Assay results as given in PubChem BioAssay AID485294 (National Center for Advancing Translational Sciences (NCATS), 2010).
The campaign covered roughly 370,000 compounds. About 150 (0.041%) were called active. The inconclusive results got no clear call from the source; some entries with a clear call stand among them for comparison. Calls follow the shape of the dose curve; as a rule, active = well fitted inhibition curve with a large enough effect; inconclusive = small, poorly fitted or top-dose-only effect; inactive = flat fitted curve, though single readings scatter. No potency is given beside an inconclusive call; the fits are too rough.

Biological target: Beta-lactamase (Escherichia coli (strain K12)) (UniProt P00811)
Assay: qHTS Inhibitors of AmpC Beta-Lactamase (assay with detergent); also: nearly all actives have a fitted effect of over 25% in size;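 as to activity change, negative = inhibition: 0% = no-compound wells and -100% = no-enzyme wells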
Conditions: AmpC hydrolysis of nitrocefin, absorbance 480 nm, 0.01% Triton; activity change, negative = inhibition: at 114 µM (top of the series)
Method in brief: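 AmpC (5.3 nM in the dispensed reagent) in 20 mM phosphate pH 7.0 with 0.01% (detergent screen) or 0.0001% Triton X-100 was preincubated with compounds for 15 min at room temperature. Nitrocefin was then added from an 800 uM solution, and hydrolysis was followed at 480 nm.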
Potency is read from the fitted curve at half-maximal effect; tags tell the direction and shape of the fitted curve.

Sequence of UniProt P00811 (P00811 whole entry, looked up): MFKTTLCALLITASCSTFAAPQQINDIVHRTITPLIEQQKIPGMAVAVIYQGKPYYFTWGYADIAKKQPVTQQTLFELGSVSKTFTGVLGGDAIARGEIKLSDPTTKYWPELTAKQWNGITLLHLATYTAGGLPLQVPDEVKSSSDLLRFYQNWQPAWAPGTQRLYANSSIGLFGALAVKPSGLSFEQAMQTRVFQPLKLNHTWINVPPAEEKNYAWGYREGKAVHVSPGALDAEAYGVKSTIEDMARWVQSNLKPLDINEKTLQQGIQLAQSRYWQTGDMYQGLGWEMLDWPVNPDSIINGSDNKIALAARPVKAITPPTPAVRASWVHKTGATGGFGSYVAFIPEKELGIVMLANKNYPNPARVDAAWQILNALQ

| Structure (SMILES) | Potency | activity change, negative = inhibition |
| --- | --- | --- |
| COc1ccc(CNC(=O)CSc2nnc(Cn3nnc4ccccc43)n2C)cc1 | inconclusive [inhibitor, full curve, poor fit] | – |
| CCOC(=O)c1c(-c2ccccc2)nnn1-c1nc(OC)nc(N2CCOCC2)n1 | inconclusive [inhibitor, full curve, poor fit] | – |
| CCN(CC)CCNC(=O)c1cc(Br)c(N)cc1OC | inconclusive [inhibitor, full curve, poor fit] | – |
| O=C(CCCc1nc(-c2ccccc2Cl)no1)NC1CCCCC1 | – | inactive: -0.644% |
| O=Cc1cccc(Oc2ccc([N+](=O)[O-])cc2[N+](=O)[O-])c1 | inconclusive [inhibitor, full curve, poor fit] | – |
| CCN1C(=O)/C(=C2\Sc3ccccc3N2CC)OC1=S | inconclusive [inhibitor, full curve, poor fit] | – |
| Cc1ccc(C(=O)N(CCc2ccccc2)Cc2ccccc2)cc1S(=O)(=O)N1CCCCC1 | inconclusive [inhibitor, partial curve, poor fit] | – |
| CC(C)N(C(=S)NCc1ccccc1)c1ccccc1 | – | inactive: -14% |
| Cc1ccc2nc(SCC(=O)N3CCCC3)nc(=O)n2c1 | inconclusive [inhibitor, full curve, poor fit] | – |
| Cc1nc2nc(SCC(=O)NC(C)c3ccccc3)nn2c(C)c1Cc1c(F)cccc1Cl (centres undefined) | inconclusive [inhibitor, full curve, poor fit] | – |
| CCC(C)NC(=O)CC(c1ccccc1)c1cc(C)ccc1O (centres undefined) | – | inactive: 1.78% |
| Cc1ccc(Nc2nnc(SCC(=O)NCCN3C(=O)CSC3=O)s2)cc1C | – | inactive: 1.83% |
| CN1CCc2c(sc3c2C(=O)NC(c2cccc(OC(=O)c4cccs4)c2)N3)C1 (centres undefined) | inconclusive [inhibitor, full curve, poor fit] | – |
| Cc1ccc(S(=O)(=O)N2CCN(CC(=O)NC(C)c3ccccc3)CC2)cc1 (centres undefined) | inconclusive [inhibitor, full curve, poor fit] | – |
| CN(C)c1ccc(/C=N/NC(=O)c2ccnn2C)cc1 | – | inactive: 2.48% |
| CN(c1ccc(Cl)cc1)c1cc(=O)n(C)c2ccccc12 | inconclusive [inhibitor, full curve, poor fit] | – |
| COCCN1C(=O)N(c2cccc(C)c2)C(=O)C1CC(=O)Nc1ccc(F)cc1 (centres undefined) | inconclusive [inhibitor, full curve, poor fit] | – |
| Cc1cccc(C(CC(=O)NCC2(c3ccccc3)CCCC2)c2ccccc2)c1O (centres undefined) | inconclusive [inhibitor, partial curve] | – |
| CC1CCCC(C)N1C(=O)c1cc2ncc(CCCl)cn2n1 (centres undefined) | inconclusive [inhibitor, partial curve] | – |
| Oc1ccc(Cl)cc1C=Nc1ccccc1Br | inconclusive [inhibitor, full curve, poor fit] | – |
| Cc1ccc(-c2nn(-c3ccccc3)cc2C(=O)NCCCN2CCOCC2)cc1 | – | inactive: 3.69% |
| N#CCSc1nnc(SCC#N)s1 | inconclusive [inhibitor, partial curve] | – |
| Cc1ccc(-n2ncc3c2CC(C)(C)CC3NC(=O)CCn2cncn2)cc1 (centres undefined) | – | inactive: -4.65% |

| Structure (SMILES) | Potency | activity change, negative = inhibition |
| --- | --- | --- |
| COc1ccc(-c2cccc(NS(=O)(=O)c3cc(C)c(Cl)cc3C)c2)nn1 | inconclusive [inhibitor, full curve, poor fit] | – |
| CCN(CC)CCNC(=O)c1cn(CC)c2ccc(S(=O)(=O)N(C)C)cc2c1=O | inconclusive [inhibitor, partial curve, poor fit] | – |
| Cc1c(C(=O)NC(=S)Nc2ccc(NC(=O)c3cccs3)cc2)oc2ccccc12 | inconclusive [inhibitor, single point] | – |
| Cc1cc(NC2CCCCC2)nc(NCc2ccccc2)n1 | – | inactive: -12% |
| CCCn1nc(C(=O)Nc2nc(-c3ccccn3)cs2)c2ccccc2c1=O | inconclusive [inhibitor, full curve, poor fit] | – |
| Cc1cc(Cn2nc(-c3ccccc3)cc2C(=O)NCc2cccc(Br)c2)on1 | inconclusive [inhibitor, full curve] | – |
| COc1ccc(-c2nnc(SC(=O)N3c4ccccc4Sc4ccccc43)o2)cc1 | inconclusive [inhibitor, full curve, poor fit] | – |
| CC1S/C(=C(\C#N)C(=O)NCc2ccco2)N(c2ccc(F)cc2)C1=O (centres undefined) | inconclusive [inhibitor, partial curve, poor fit] | – |
| CCOC(=O)Cc1csc(NC(=O)CSc2nnnn2-c2ccc(CC)cc2)n1 | inconclusive [inhibitor, partial curve, poor fit] | – |
| c1ccc(NC2=Nc3ccccc3CS2)cc1 | – | inactive: -7.07% |
| Cn1c(=O)c2c(nc(SCC(=O)Nc3ccccc3)n2C)n(C)c1=O | inconclusive [inhibitor, full curve] | – |
| Cc1ccc(O)c(C(=O)CC(=O)c2ccccc2Cl)c1 | inconclusive [inhibitor, single point] | – |
| CC(=O)c1ccc[n+](CC(=O)NC(C)c2ccccc2)c1 (centres undefined) | – | inactive: -8.25% |
| Cc1cccc(C(=O)Nc2ccc(N3CCC(CCN4CCOCC4)CC3)c(C(=O)O)c2)c1 | – | inactive: 2.96% |
| CC(=O)N/C(=C\c1ccccc1)C(=O)OCC(=O)c1ccccc1 | inconclusive [inhibitor, full curve] | – |
| Cc1nn(C)c(C)c1S(=O)(=O)N1CCC(C(=O)NC2CCCCC2)CC1 | – | inactive: -12.4% |
| Cc1cccc(C(=O)NCC(=O)Nc2ccncc2)c1 | inconclusive [inhibitor, full curve, poor fit] | – |
| COCCCNC(=O)c1c(N)n(/N=C/c2cccnc2)c2nc3ccccc3nc12 | inconclusive [inhibitor, full curve, poor fit] | – |
| COc1ccc(-c2nnc(SCC(=O)NC(C)c3ccccc3)o2)cc1 (centres undefined) | inconclusive [inhibitor, full curve, poor fit] | – |
| COCCCN(Cc1ccco1)C(=O)CSc1nc2ncccc2[nH]1 | – | inactive: 5.16% |
| O=S(=O)(c1cccc2c(S(=O)(=O)N3CCCC3)cccc12)N1CCCC1 | inconclusive [inhibitor, full curve, poor fit] | – |
| O=C(NCc1nc(-c2ccccc2)no1)c1cccs1 | inconclusive [inhibitor, full curve, poor fit] | – |
| C=C(C)Cn1c(N(CCO)Cc2ccccc2)nc2c1c(=O)[nH]c(=O)n2C | inconclusive [inhibitor, full curve, poor fit] | – |

| Structure (SMILES) | Potency | activity change, negative = inhibition |
| --- | --- | --- |
| COc1ccc(/C=C/C(=O)c2ccc[nH]2)c(OC)c1OC | inconclusive [inhibitor, partial curve] | – |
| CCC1=NN2C(=N)/C(=C\c3cccn3-c3ccc(C)c(C)c3)C(=O)N=C2S1 | inconclusive [inhibitor, partial curve] | – |
| NC(=O)c1c(NC(=O)c2ccncc2)sc2c1CCCCCC2 | – | inactive: -8.38% |
| Cc1ccc(O)c(C2=Nc3ccccc3N=C(c3ccco3)C2)c1 | – | inactive: 2.81% |
| Cn1cc(S(=O)(=O)N2CCN(c3ccc(F)cc3)CC2)c(=O)n(C)c1=O | inconclusive [inhibitor, single point] | – |
| COc1ccc(CCNC(=O)c2cc3c(=O)n4cccc(C)c4nc3n(CC3CCCO3)c2=N)cc1 (centres undefined) | – | inactive: -11.6% |
| CCS(=O)(=O)N1CCC(C(=O)NCc2cccs2)CC1 | – | inactive: 0.367% |
| CC(OC(=O)c1cc(S(=O)(=O)N2CCOCC2)ccc1Br)C(=O)N1CCOCC1 (centres undefined) | inconclusive [inhibitor, full curve, poor fit] | – |
| CCCCNC(=O)CS(=O)Cc1nc(-c2cccc(C)c2)oc1C (centres undefined) | inconclusive [inhibitor, full curve, poor fit] | – |
| CCOC(=O)N1CC(=O)Nc2ccc(Br)cc2C1c1ccccc1 (centres undefined) | – | inactive: 4.1% |
| Cc1cccc(Cl)c1OCCCCn1ccnc1 | inconclusive [inhibitor, full curve] | – |
| COc1ccc(CC(NC(=O)c2ccccc2)C(=O)NCC(=O)O)cc1 (centres undefined) | inconclusive [inhibitor, partial curve, poor fit] | – |
| Cc1nc2ccc(NC(=O)c3ccccc3)cc2s1 | – | inactive: 1.59% |
| O=C(CS(=O)(=O)c1ccccc1)Nc1nnc(C(F)(F)F)s1 | inconclusive [inhibitor, full curve] | – |
| Cn1c(C(=O)N2CCN(C3CCCCC3)CC2)cc2c(=O)n(C)c3ccccc3c21 | inconclusive [inhibitor, partial curve, poor fit] | – |
| Cc1cccc(C)c1OCCNC(=O)CCC(=O)c1ccccc1 | inconclusive [inhibitor, full curve] | – |
| CCCN1CCN(CC2=C(C(=O)OCC)C(c3ccc(Cl)cc3)NC(=O)N2)CC1 (centres undefined) | – | inactive: 3.25% |
| CCc1cccc(C)c1NC(=O)COC(=O)c1c2c(nc3ccccc13)/C(=C\c1cccs1)CCC2 | – | inactive: -3.58% |
| CN1CCc2cccc(Cl)c2CC1 | inconclusive [inhibitor, full curve, poor fit] | – |
| COc1ccc(CNC(=O)C(c2ccncc2)N(C(=O)Cc2cccs2)c2ccc(C)cc2)cc1 (centres undefined) | – | inactive: -1.21% |
| CCOC(=O)c1cc(NC(=O)NC2CCCCC2)c(C)nc1C | inconclusive [inhibitor, single point] | – |
| S=C1NC[C@H](Cc2cccc3ccccc23)N1CC1CCCCC1 | – | inactive: 2.26% |
| NC1=NC(=O)/C(=C/c2ccccc2OS(=O)(=O)c2ccc3ccccc3c2)S1 | inconclusive [inhibitor, partial curve] | – |
